# Source: a collection of fitness landscapes (doi:10.1126/science.1257360)
# The list shows a part of the results.
# B1: PhoQ; a variant is named by its letters at X, in order, P23837 (parent)
# chain: MKKLLRLFFPLSLRVRFLLATAAVVLVLSLAYGMVALIGYSVSFDKTTFRLLRGESNLFYTLAKWENNKLHVELPENIDKQSPTMTLIYDENGQLLWAQRDVPWLMKMIQPDWLKSNGFHEIEADVNDTSLLLSGDHSIQQQLQEVREDDDDAEMTHSVAVNVYPATSRMPKLTIVVVDTIPVELKSSYMVWSWFIYVLSANLLLVIPLLWVAAWWSLRPIEALAKEVRELEEHNRELLNPATTRELTSLVRNLNRLLKSERERYDKYRTTLTDLTHSLKTPLXXLQXXLRSLRSEKMSVSDAEPVMLEQISRISQQIGYYLHRASMRGGTLLSRELHPVAPLLDNLTSALNKVYQRKGVNISLDISPEISFVGEQNDFVEVMGNVLDNACKYCLEFVEISARQTDEHLYIVVEDDGPGIPLSKREVIFDRGQRVDTLRPGQGVGLAVAREITEQYEGKIVAGESMLGGARMEVIFGRQHSAPKDE
# Variants of: B1
# Assay: enrichment ratio after two sorts for PhoP signalling (ratio (wild type AVST 3.29)); higher = more functional
# Settings: with PhoP (E. coli)
row,Variant,enrichment ratio
1,RAKW,≤ 0.25
2,DIKW,≤ 0.25
3,RDGV,≤ 0.25
4,STDA,≤ 0.25
5,NRIY,≤ 0.25
6,GFCQ,≤ 0.25
7,VITH,≤ 0.25
8,HMVP,≤ 0.25
9,NLAK,≤ 0.25
10,VQSG,≤ 0.25
11,EGGM,≤ 0.25
12,MSCE,≤ 0.25
13,RFCM,≤ 0.25
14,NQMF,≤ 0.25
15,KPVK,≤ 0.25
16,KDGQ,≤ 0.25
17,IPSF,≤ 0.25
18,WAPM,≤ 0.25
19,RLMS,≤ 0.25
20,SVQW,≤ 0.25
21,SENV,3.86
22,HSVL,3.66
23,LWCM,≤ 0.25
24,WALY,≤ 0.25

row,Variant,enrichment ratio
1,MVAT,≤ 0.25
2,VINC,≤ 0.25
3,PINE,≤ 0.25
4,TFCN,≤ 0.25
5,ASDL,≤ 0.25
6,MNWV,3.05
7,HATF,≤ 0.25
8,KDKY,≤ 0.25
9,RSCN,≤ 0.25
10,VPWF,≤ 0.25
11,ANST,3.81
12,SSDP,≤ 0.25
13,DAFK,≤ 0.25
14,NHKM,≤ 0.25
15,RQKD,≤ 0.25
16,ENSL,≤ 0.25
17,EMCC,≤ 0.25
18,DSGC,≤ 0.25
19,LENS,0.363
20,KFCD,≤ 0.25
21,YYNW,≤ 0.25
22,YIMG,0.348
23,HKQH,≤ 0.25
24,FARE,≤ 0.25

row,Variant,enrichment ratio
1,KGSQ,≤ 0.25
2,VFDH,≤ 0.25
3,APNW,≤ 0.25
4,LGLN,≤ 0.25
5,FAHK,≤ 0.25
6,GPVL,≤ 0.25
7,FDRQ,≤ 0.25
8,YCME,7.54
9,YGLA,12.8
10,HQQD,≤ 0.25
11,DPSN,≤ 0.25
12,FPWV,≤ 0.25
13,FECW,≤ 0.25
14,SSIV,14.2
15,KGYC,≤ 0.25
16,NTCV,≤ 0.25
17,WDRI,≤ 0.25
18,GGEY,≤ 0.25
19,VVPS,≤ 0.25
20,NFIS,≤ 0.25
21,IDGC,≤ 0.25
22,PTKT,≤ 0.25
23,AEWI,≤ 0.25
24,MNIG,≤ 0.25

row,Variant,enrichment ratio
1,VDMN,≤ 0.25
2,RPKK,≤ 0.25
3,IVCG,≤ 0.25
4,VSYK,≤ 0.25
5,LQIA,≤ 0.25
6,QDDS,≤ 0.25
7,ESDV,≤ 0.25
8,EQHS,≤ 0.25
9,TMAH,1.31
10,GKVG,≤ 0.25
11,ADRV,≤ 0.25
12,VHWA,≤ 0.25
13,HWRE,≤ 0.25
14,LGTD,≤ 0.25
15,VGIE,≤ 0.25
16,WGIL,≤ 0.25
17,PGFQ,≤ 0.25
18,QYYR,≤ 0.25
19,VHFP,≤ 0.25
20,YVVI,≤ 0.25
21,RSPA,≤ 0.25
22,MTVC,≤ 0.25
23,QDAS,≤ 0.25
24,PGVG,≤ 0.25

row,Variant,enrichment ratio
1,SWFM,≤ 0.25
2,KKLF,≤ 0.25
3,NPNM,≤ 0.25
4,DDEL,≤ 0.25
5,KNRR,≤ 0.25
6,QRSR,≤ 0.25
7,PNTR,≤ 0.25
8,FNHQ,≤ 0.25
9,NKTV,≤ 0.25
10,GYYR,≤ 0.25
11,VAEN,≤ 0.25
12,GTYQ,0.253
13,QTNR,≤ 0.25
14,PWDE,≤ 0.25
15,SQAV,6.43
16,HPDY,≤ 0.25
17,YPSV,≤ 0.25
18,KQGL,≤ 0.25
19,FSWT,≤ 0.25
20,NMPH,≤ 0.25
21,NIQA,≤ 0.25
22,DEMR,≤ 0.25
23,AALE,1.95
24,FSYD,≤ 0.25

row,Variant,enrichment ratio
1,GMTH,≤ 0.25
2,VDEG,≤ 0.25
3,IGPC,≤ 0.25
4,SING,13.7
5,DEEF,≤ 0.25
6,TYCE,≤ 0.25
7,MERP,≤ 0.25
8,FWHH,≤ 0.25
9,RNFG,≤ 0.25
10,IAHF,≤ 0.25
11,KAQR,≤ 0.25
12,FAIE,≤ 0.25
13,FVSP,≤ 0.25
14,HDSH,≤ 0.25
15,RHVG,≤ 0.25
16,ESMH,≤ 0.25
17,TAEW,≤ 0.25
18,NAGH,≤ 0.25
19,EASM,≤ 0.25
20,KLWR,≤ 0.25
21,YSDT,≤ 0.25
22,IARC,0.28
23,WDTN,≤ 0.25
24,WTGR,≤ 0.25

row,Variant,enrichment ratio
1,LNTV,≤ 0.25
2,WRGD,≤ 0.25
3,FMNY,≤ 0.25
4,VWTL,≤ 0.25
5,SYTF,≤ 0.25
6,RRDD,≤ 0.25
7,LHCH,≤ 0.25
8,YHRM,≤ 0.25
9,LWKY,≤ 0.25
10,YYSN,≤ 0.25
11,TRHC,≤ 0.25
12,PNYV,≤ 0.25
13,HMQN,≤ 0.25
14,YIFD,≤ 0.25
15,KANW,≤ 0.25
16,GNWD,≤ 0.25
17,FDVE,≤ 0.25
18,AERS,≤ 0.25
19,NFSF,≤ 0.25
20,HENN,≤ 0.25
21,GKCM,3.47
22,GFWN,≤ 0.25
23,YETE,≤ 0.25
24,HCKM,≤ 0.25

row,Variant,enrichment ratio
1,MALN,8.63
2,NTVK,≤ 0.25
3,ICES,≤ 0.25
4,YEDY,≤ 0.25
5,GSFI,≤ 0.25
6,LKIK,≤ 0.25
7,YSVM,4.14
8,FAVC,≤ 0.25
9,MEML,12
10,DNLY,≤ 0.25
11,EPTQ,≤ 0.25
12,NEAT,2.42
13,NWTV,≤ 0.25
14,RQGY,≤ 0.25
15,YISN,0.322
16,YEPG,≤ 0.25
17,HNNN,≤ 0.25
18,QFHE,≤ 0.25
19,WWTH,≤ 0.25
20,FWTA,≤ 0.25
21,KMFD,≤ 0.25
22,FGRF,≤ 0.25
23,AQCM,≤ 0.25
24,KYFW,≤ 0.25

row,Variant,enrichment ratio
1,SETV,14.9
2,LPII,≤ 0.25
3,PCKN,≤ 0.25
4,DCKR,≤ 0.25
5,TCWI,1.27
6,FHCR,≤ 0.25
7,DTVE,≤ 0.25
8,NTIQ,≤ 0.25
9,GMCD,≤ 0.25
10,GQNP,≤ 0.25
11,ANGK,≤ 0.25
12,ILGK,≤ 0.25
13,MRCC,≤ 0.25
14,HDMA,≤ 0.25
15,GFPQ,≤ 0.25
16,VGPY,≤ 0.25
17,HIAY,≤ 0.25
18,VTHA,≤ 0.25
19,VQRS,≤ 0.25
20,RWFF,≤ 0.25
21,SMTG,5.2
22,KHWI,≤ 0.25
23,GCKA,≤ 0.25
24,HLAM,4.36

row,Variant,enrichment ratio
1,PNCG,≤ 0.25
2,ADQR,≤ 0.25
3,QYAQ,1.68
4,LCDR,≤ 0.25
5,VKKG,≤ 0.25
6,MLYT,≤ 0.25
7,VEGP,≤ 0.25
8,TCGD,20.3
9,QNWY,≤ 0.25
10,ETRN,≤ 0.25
11,FGNW,≤ 0.25
12,FKYE,≤ 0.25
13,QVVW,≤ 0.25
14,DFVS,≤ 0.25
15,SMIP,≤ 0.25
16,SGSY,6.9
17,RGSY,≤ 0.25
18,KFVD,≤ 0.25
19,AYGE,≤ 0.25
20,IMYP,≤ 0.25
21,THWA,≤ 0.25
22,AKWH,≤ 0.25
23,PFST,≤ 0.25
24,FFHT,≤ 0.25

row,Variant,enrichment ratio
1,LDLD,≤ 0.25
2,DEYP,≤ 0.25
3,VTRS,≤ 0.25
4,RLWM,≤ 0.25
5,EQWI,≤ 0.25
6,DSFH,≤ 0.25
7,TFRN,≤ 0.25
8,LIKA,≤ 0.25
9,SLQC,≤ 0.25
10,LEVQ,≤ 0.25
11,VLID,≤ 0.25
12,SRLE,≤ 0.25
13,AIQK,≤ 0.25
14,FAYN,≤ 0.25
15,STQV,2.63
16,GDDC,≤ 0.25
17,VPWG,≤ 0.25
18,NHDN,≤ 0.25
19,ICKG,≤ 0.25
20,YFHE,≤ 0.25
21,MLPG,≤ 0.25
22,DLKD,≤ 0.25
23,LMVN,≤ 0.25
24,SKNH,≤ 0.25

row,Variant,enrichment ratio
1,DQLW,≤ 0.25
2,MIVA,0.385
3,LGRL,≤ 0.25
4,TYIS,≤ 0.25
5,APPY,≤ 0.25
6,QVNA,≤ 0.25
7,PKNY,≤ 0.25
8,YESW,≤ 0.25
9,DKNS,≤ 0.25
10,DGAS,≤ 0.25
11,VISL,0.654
12,MRLC,≤ 0.25
13,HYDK,≤ 0.25
14,MCPE,≤ 0.25
15,PMVP,≤ 0.25
16,WHLA,≤ 0.25
17,LFST,≤ 0.25
18,RMVQ,≤ 0.25
19,SMYG,≤ 0.25
20,LFPI,≤ 0.25
21,FTGT,≤ 0.25
22,QSGH,5.99
23,EVAL,≤ 0.25
24,IPCM,≤ 0.25

row,Variant,enrichment ratio
1,FNLR,≤ 0.25
2,TIKS,≤ 0.25
3,IHES,≤ 0.25
4,KEHW,≤ 0.25
5,DLDW,≤ 0.25
6,QASH,4.83
7,KFWV,≤ 0.25
8,TEAP,≤ 0.25
9,FICQ,≤ 0.25
10,KVRN,≤ 0.25
11,EGQY,≤ 0.25
12,RNCA,≤ 0.25
13,TVWV,≤ 0.25
14,NWFP,≤ 0.25
15,KFNP,≤ 0.25
16,YWWV,≤ 0.25
17,WRSN,≤ 0.25
18,NLAM,≤ 0.25
